# Source: a collection of fitness landscapes (doi:10.1016/j.celrep.2020.107928)
# Whole data set: some 81,000 sequences, median “one-hybrid fitness for binding parS DNA” near -0.17, cut for the highest 2% near 0.51. The list shows a part of the results.
# B1: Caulobacter ParB omega fusion; a variant is named by its letters at X, in order, B8GW30 (parent)
# chain: MESVVVGEPGMSEGRRGLGRGLSALLGEVDAAPAQAPGEQLGGSREAPIEILQRNPDQPRRTFREEDLEDLSNSIREKGVLQPILVRPSPDTAGEYQIVAGERAWRAAQRAGLKTVPIMVRELDDLAVLEIGIIENVQRADLNVLEEALSYKVLMEKFERTQENIAQTIGKSXSHVANXMRLLXLPDEVQSYLVSGELTAXHARAIAAAADPVALAKQIIEGGLSVRETEALARKAPNLSAGKSKGGRPPRVKDTDTQALESDLSSVLGLDVSIDHRGSTGTLTITYATLEQLDDLCNRLTRGI
# Variants of: B1
# Assay: one-hybrid fitness for binding parS DNA (scaled: cognate 1, non-cognate 0); higher = stronger binding
# Conditions: with parS DNA site
# In short: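 The reporter was HIS3, with the binding site 19 bp from the promoter, in E. coli USO used for bacterial one-hybrid selection of Caulobacter ParB libraries with four specificity codons randomised. Growth was on M9 lacking histidine, with 0.1 mM IPTG and 5 mM 3-AT, for 48 hours at 37°C. Illumina sequencing covered plasmids before and after selection; three replicate libraries were pooled and variants with under 10 reads dropped. A fitness score is the log change in variant-to-wild-type read ratio, rescaled to the cognate and non-cognate references.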
row,Variant,one-hybrid fitness for binding parS DNA
1,VEPC,≤ 0.2
2,WCQR,≤ 0.2
3,RGCL,≤ 0.2
4,YMIG,≤ 0.2
5,DNPR,≤ 0.2
6,RSAH,0.226
7,KKVH,≤ 0.2
8,TPTH,≤ 0.2
9,PFHT,≤ 0.2
10,TPGF,≤ 0.2
11,QHWR,≤ 0.2
12,WMHR,≤ 0.2
13,PYMD,≤ 0.2
14,NDTG,≤ 0.2
15,LPEG,≤ 0.2
16,QLHR,≤ 0.2
17,ATEP,≤ 0.2
18,TGTC,≤ 0.2
19,IQNA,0.208
20,QLRC,≤ 0.2
21,THIT,≤ 0.2
22,RKHA,0.67
23,SHDM,≤ 0.2
24,VMLC,≤ 0.2

row,Variant,one-hybrid fitness for binding parS DNA
1,QGNF,≤ 0.2
2,FRQG,≤ 0.2
3,QAFH,≤ 0.2
4,CRTF,≤ 0.2
5,AKIR,≤ 0.2
6,PDST,≤ 0.2
7,YCDR,≤ 0.2
8,WYLC,≤ 0.2
9,DTLT,≤ 0.2
10,YPTN,≤ 0.2
11,SINF,≤ 0.2
12,SVHI,≤ 0.2
13,QYIS,≤ 0.2
14,YISR,≤ 0.2
15,VKVF,≤ 0.2
16,SDHR,≤ 0.2
17,CYWS,≤ 0.2
18,PSVV,≤ 0.2
19,SAKE,≤ 0.2
20,PPAF,≤ 0.2
21,EADY,≤ 0.2
22,RPQL,≤ 0.2
23,VAQY,≤ 0.2
24,PDPC,≤ 0.2

row,Variant,one-hybrid fitness for binding parS DNA
1,QRQG,≤ 0.2
2,PRHP,≤ 0.2
3,QQWM,≤ 0.2
4,MVSL,≤ 0.2
5,NYRC,≤ 0.2
6,HAWM,≤ 0.2
7,AFVT,≤ 0.2
8,YKGG,≤ 0.2
9,IDPE,≤ 0.2
10,STPQ,≤ 0.2
11,ISPY,≤ 0.2
12,MAKT,≤ 0.2
13,SREN,≤ 0.2
14,LKRW,≤ 0.2
15,LAIE,≤ 0.2
16,KKRS,≤ 0.2
17,NLKK,≤ 0.2
18,VDSH,≤ 0.2
19,THMC,≤ 0.2
20,RNYC,0.719
21,RATQ,≤ 0.2
22,QSTW,≤ 0.2
23,NCHT,≤ 0.2
24,SFNG,≤ 0.2

row,Variant,one-hybrid fitness for binding parS DNA
1,SHGL,≤ 0.2
2,TDSY,≤ 0.2
3,MCCL,≤ 0.2
4,SDGQ,≤ 0.2
5,HLGD,≤ 0.2
6,KLYM,0.203
7,PDVV,≤ 0.2
8,RNYP,≤ 0.2
9,VHSM,≤ 0.2
10,ADDA,≤ 0.2
11,QVTQ,≤ 0.2
12,TAFN,≤ 0.2
13,NDWG,≤ 0.2
14,YMTV,≤ 0.2
15,YMCR,≤ 0.2
16,HGNV,≤ 0.2
17,NPRC,≤ 0.2
18,KHKY,≤ 0.2
19,CSSN,≤ 0.2
20,LKCS,≤ 0.2
21,QPLC,≤ 0.2
22,EFNT,≤ 0.2
23,MAAM,≤ 0.2
24,NSKV,≤ 0.2

row,Variant,one-hybrid fitness for binding parS DNA
1,PLNM,≤ 0.2
2,TESP,≤ 0.2
3,FYES,≤ 0.2
4,LVSY,≤ 0.2
5,TLYR,≤ 0.2
6,WVTA,≤ 0.2
7,DHGS,≤ 0.2
8,LWVP,≤ 0.2
9,NTHH,≤ 0.2
10,QCAV,≤ 0.2
11,SPKK,≤ 0.2
12,IDGS,≤ 0.2
13,QRQS,≤ 0.2
14,QTAN,≤ 0.2
15,MNYA,≤ 0.2
16,PPNC,≤ 0.2
17,SCPN,≤ 0.2
18,IETY,≤ 0.2
19,DVLC,≤ 0.2
20,MNVG,≤ 0.2
21,ASYT,≤ 0.2
22,QFTN,≤ 0.2
23,GWSG,≤ 0.2
24,YKHT,≤ 0.2

row,Variant,one-hybrid fitness for binding parS DNA
1,KRSC,≤ 0.2
2,HGST,≤ 0.2
3,NMSR,≤ 0.2
4,RIYY,0.475
5,MTAN,≤ 0.2
6,QQQG,≤ 0.2
7,MPKY,≤ 0.2
8,PNLY,≤ 0.2
9,ANVT,≤ 0.2
10,NKIC,≤ 0.2
11,RGRF,≤ 0.2
12,QWTI,≤ 0.2
13,PEYI,≤ 0.2
14,MLLV,≤ 0.2
15,EQSN,≤ 0.2
16,QPSW,≤ 0.2
17,HEES,≤ 0.2
18,DKAK,≤ 0.2
19,MEVR,≤ 0.2
20,QMCM,≤ 0.2
21,PERC,≤ 0.2
22,CAHN,≤ 0.2
23,ELSG,≤ 0.2
24,KNNM,≤ 0.2

row,Variant,one-hybrid fitness for binding parS DNA
1,HSHA,≤ 0.2
2,PDML,≤ 0.2
3,CYIS,≤ 0.2
4,CSAK,≤ 0.2
5,MIRK,≤ 0.2
6,HYTE,≤ 0.2
7,QAPK,≤ 0.2
8,QNAD,≤ 0.2
9,DDHV,≤ 0.2
10,KLKR,≤ 0.2
11,KYQG,≤ 0.2
12,STLT,≤ 0.2
13,TTIK,≤ 0.2
14,SQQG,≤ 0.2
15,SFSA,≤ 0.2
16,LTGD,≤ 0.2
17,MPMG,≤ 0.2
18,EFDM,≤ 0.2
19,TIHT,≤ 0.2
20,MNTT,≤ 0.2
21,RMCW,0.211
22,QLLP,≤ 0.2
23,QAMY,≤ 0.2
24,TAKC,≤ 0.2

row,Variant,one-hybrid fitness for binding parS DNA
1,RRCP,≤ 0.2
2,NVFG,≤ 0.2
3,TLWV,≤ 0.2
4,ERGT,≤ 0.2
5,HWRH,≤ 0.2
6,YDWR,≤ 0.2
7,NSHN,≤ 0.2
8,QMHQ,≤ 0.2
9,LLFR,≤ 0.2
10,KETS,≤ 0.2
11,SSFH,≤ 0.2
12,EQHG,≤ 0.2
13,IRAS,≤ 0.2
14,QIYD,≤ 0.2
15,GDVR,≤ 0.2
16,IEPW,≤ 0.2
17,QRAY,≤ 0.2
18,ELSC,≤ 0.2
19,NKYN,≤ 0.2
20,RFQK,≤ 0.2
21,SVRK,≤ 0.2
22,QKTC,≤ 0.2
23,CCYF,0.264
24,QSPL,≤ 0.2

row,Variant,one-hybrid fitness for binding parS DNA
1,HTSR,≤ 0.2
2,LILN,≤ 0.2
3,QSNC,≤ 0.2
4,PGIM,≤ 0.2
5,SPSY,≤ 0.2
6,RCLS,1.04
7,KRGP,≤ 0.2
8,GIDS,≤ 0.2
9,TRYY,≤ 0.2
10,NIEG,≤ 0.2
11,KKDT,≤ 0.2
12,SIYP,≤ 0.2
13,NRIF,≤ 0.2
14,MRDS,≤ 0.2
15,RQDS,0.977
16,TDSA,≤ 0.2
17,QDDV,≤ 0.2
18,LTNL,≤ 0.2
19,RNII,≤ 0.2
20,RYSS,0.911
21,RKKI,≤ 0.2
22,PTNF,≤ 0.2
23,PYMV,≤ 0.2
24,SSNM,≤ 0.2

row,Variant,one-hybrid fitness for binding parS DNA
1,KPNC,≤ 0.2
2,ELPR,≤ 0.2
3,YERN,≤ 0.2
4,FTPQ,0.304
5,LCGC,≤ 0.2
6,QSSG,≤ 0.2
7,QTFC,≤ 0.2
8,CGMV,≤ 0.2
9,SVNE,≤ 0.2
10,RELK,≤ 0.2
11,PKEQ,≤ 0.2
12,LPFC,≤ 0.2
13,PFRD,≤ 0.2
14,GGPG,≤ 0.2
15,QVPG,≤ 0.2
16,ACTG,≤ 0.2
17,PQKS,≤ 0.2
18,DQGL,≤ 0.2
19,TRVC,≤ 0.2
20,PSDV,≤ 0.2
21,LKRA,≤ 0.2
22,DVWA,≤ 0.2
23,YGVV,≤ 0.2
24,QCYS,≤ 0.2

row,Variant,one-hybrid fitness for binding parS DNA
1,RFHE,≤ 0.2
2,LQIP,≤ 0.2
3,GTKH,≤ 0.2
4,PMGT,≤ 0.2
5,LKPK,≤ 0.2
6,TYMS,≤ 0.2
7,TGGG,≤ 0.2
8,PVNW,≤ 0.2
9,TGRR,≤ 0.2
10,HSMA,≤ 0.2
11,MLSA,≤ 0.2
12,FRHP,≤ 0.2
13,MDLG,≤ 0.2
14,IHLT,≤ 0.2
15,ADWE,≤ 0.2
16,WTAD,≤ 0.2
17,RAYF,0.264
18,QRFF,≤ 0.2
19,FPGM,≤ 0.2
20,PNHD,≤ 0.2
21,KHPY,≤ 0.2
22,GTIK,≤ 0.2
23,PRID,≤ 0.2
24,QNAK,≤ 0.2

row,Variant,one-hybrid fitness for binding parS DNA
1,THSK,≤ 0.2
2,HIYG,≤ 0.2
3,SVCG,≤ 0.2
4,EIGS,≤ 0.2
5,PQWY,≤ 0.2
6,WRLT,≤ 0.2
7,DYPC,≤ 0.2
8,NNNT,≤ 0.2
9,SMDC,≤ 0.2
10,SRCW,≤ 0.2
11,CAPD,≤ 0.2
12,RCKA,0.844
13,FYKR,≤ 0.2
14,PGMG,≤ 0.2
15,ANMD,≤ 0.2
16,CFPS,≤ 0.2
17,GSNA,≤ 0.2
18,ETLS,≤ 0.2
19,GSSR,≤ 0.2
20,KDLG,≤ 0.2
21,PGCY,≤ 0.2
22,PADD,≤ 0.2
23,ADHR,≤ 0.2
24,GTSE,≤ 0.2

row,Variant,one-hybrid fitness for binding parS DNA
1,GTSG,≤ 0.2
2,DKYW,≤ 0.2
3,QPFN,≤ 0.2
4,RCQR,≤ 0.2
5,MAVG,≤ 0.2
6,KWLR,≤ 0.2
7,CGGW,≤ 0.2
8,YLEP,≤ 0.2
9,TFTY,≤ 0.2
10,LTRP,≤ 0.2
11,RAEQ,0.234
12,MTLT,≤ 0.2
13,TMET,≤ 0.2
14,TSLL,≤ 0.2
15,VTPK,≤ 0.2
16,RHTN,0.384
17,KFPS,≤ 0.2
18,LNFF,≤ 0.2
